Data on 14 molecules can be found in PubChem BioAssay (NCI).

SMILES strings stand for the structures.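 Assay format: 96-well plates, 48-hour exposure. GI50 is the concentration that inhibits growth by half. TGI is the concentration that stops growth completely.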 Peptide text beside a SMILES is read from it. * marks the point of attachment. Fmoc = O=C(OCC1c2ccccc2-c2ccccc21)*; OBn = c1ccc(CO*)cc1; tBu = CC(C)(C)* Where only a bound is given, the exact number is not on record here.

The experiment relates to NCI-H322M lung. As to the kind of experiment: growth of human tumour cells (NCI), 48 h.
`C[C@]12CC[C@H]3[C@@H](CCC4=C/C(=N/OCCN5CCCCC5)CC[C@@]43C)[C@@H]1CC[C@@H]2O`: the TGI is 51 µM.

In the case of `Cc1nc2sc(C(=O)Nc3cccc(Cl)c3)c(N)c2cc1C(O)c1ccccc1` (configuration not stated), the GI50 is 2.98 µM and the TGI was determined as 18.4 µM.

Take `O=C(Nc1ccc(-n2cc(-c3ccncc3)c(-c3ccc(Cl)c(O)c3)n2)cc1)c1ccc(Cl)c(Cl)c1`: the GI50 is above 100 µM and the TGI was above 100 µM.

`CC(=O)N1CN2C(=O)CCC2c2cc(C)ccc21` (configuration not stated) yielded a TGI above 100 µM.

The molecule `CCN(CCCl)c1cc(CN(C)C)cc(NC(=O)c2ccc(C(=O)Nc3cccc(N(CCCl)NN)c3)cc2)c1` returned a TGI of 0.642 µM.

As to `Cc1ccc(/C=C2\CCCC(C(NO)c3ccc(C)cc3)C2=NO)cc1` (configuration not stated), the TGI amounted to 33.3 µM.

For `COc1cc(COC(=O)N(C)[C@@H](Cc2ccccc2)C(=O)O)c([N+](=O)[O-])cc1OC`, the TGI is above 100 µM.

The molecule `CC(OC(C)(C)C)C(NC(=O)OCC1c2ccccc2-c2ccccc21)C(=O)NC(Cc1ccccc1)C(=O)OCc1ccccc1` (configuration not stated) (Fmoc-Thr(tBu)-Phe-OBn; configuration not given here) yielded a TGI above 100 µM.

In the case of `N#CC(C#N)=C/C=C/c1ccccc1[N+](=O)[O-]`, the TGI was above 10 µM.

In turn, `Nc1c(-c2ccccc2)c2ccc([N+](=O)[O-])cc2c(=O)n1-c1cccc(C(=O)O)c1` displayed a TGI above 100 µM.

Regarding `Cc1cc(S(=O)(=O)NC2=NCc3c(F)cccc3N2)c(S)cc1Cl`, the TGI is above 100 µM.

Regarding `COC(=O)[C@]1(c2cc3ccccc3[nH]2)CC2CNC1C1OC(C)(C)OC21` (some centres not stated), the TGI is above 100 µM.

Take `COc1cc(-c2ccc[nH]2)[nH]c1/C=C1\N=C(C)C(C(=O)NC(C)C)=C1C`: the GI50 is 11.7 µM and the TGI worked out at 27.1 µM.

`COc1ccc(C=C2C(C)=NN(c3cccc(Cl)c3)C23C(Cl)C(=O)N3c2nc3ccccc3s2)cc1` (configuration not stated): the TGI is above 100 µM.
